This is an account of results in article PMC12820563, “FoxP3 forms a head-to-head dimer in vivo and stabilizes its multimerization on adjacent microsatellites”.

The other results are listed elsewhere or left out.

This test has as its target T1, MBP-FoxP1dN (Mus musculus, UniProt P58462 326-579).
T1 sequence: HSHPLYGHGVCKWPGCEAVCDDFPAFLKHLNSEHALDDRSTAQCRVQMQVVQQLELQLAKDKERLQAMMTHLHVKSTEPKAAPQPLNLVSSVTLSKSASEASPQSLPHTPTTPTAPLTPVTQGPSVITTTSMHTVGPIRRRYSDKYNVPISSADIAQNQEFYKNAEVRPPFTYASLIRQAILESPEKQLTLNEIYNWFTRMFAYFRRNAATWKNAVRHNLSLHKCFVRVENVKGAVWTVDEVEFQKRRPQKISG
Description: PD-seq (MBP pull-down with sequencing); 20 mM Tris-HCl pH 7.5, 100 mM NaCl, 1.5 mM MgCl2, 0.4 uM protein, 0.1 uM dsDNA library, 30 min, room temperature, amylose pull-down; high values mean tight binding. The conditions noted are these: protein: recombinant; tags: His6-MBP; chain copies: 2; dsDNA, one strand shown. The procedure, abridged:
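Protein and DNA were mixed at 0.4 µM and 0.1 µM and held for 30 min at room temperature in Tris pH 7.5 buffer with NaCl and MgCl2; the protein was a His6-MBP-tagged, N-terminally truncated mouse FoxP3 or FoxP1 fragment from E. coli, and the DNA a Klenow-filled double-stranded degenerate library. Amylose resin captured the complexes, which were washed three times. Binding is read as reads-per-million enrichment of pull-down versus input after Illumina sequencing, with replicates pooled.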
For “GATGATTGTTCTCCCAGCTGATGAATTTTCGGATTCGAGTAAACAAATTTTCCTAATCTTTCTGTTCAAGCGCCATCTAC”, the binding signal was 0.943 RPM ratio (pull-down/input).
The figure for “GATGATTGTTCTCCCAGCTGATGAATTTGAGCCATCGAGTAAACAAATTTTCCTAATCTTTCTGTTCAAGCGCCATCTAC” is 0.869 RPM ratio (pull-down/input); for “GATGATTGTTCTCCCAGCTGATGAATTATGATACTCGAGTAAACAAATTTTCCTAATCTTTCTGTTCAAGCGCCATCTAC” it is 1.12 RPM ratio (pull-down/input); for “GATGATTGTTCTCCCAGCTGATGAATTGTATGCTTCGAGTAAACAAATTTTCCTAATCTTTCTGTTCAAGCGCCATCTAC” it is 1.18 RPM ratio (pull-down/input).
In the case of “GATGATTGTTCTCCCAGCTGATGAATTCGCATTGTCGAGTAAACAAATTTTCCTAATCTTTCTGTTCAAGCGCCATCTAC”, the binding signal was 1.2 RPM ratio (pull-down/input).
Take “GATGATTGTTCTCCCAGCTGATGAATTCAAAGACTCGAGTAAACAAATTTTCCTAATCTTTCTGTTCAAGCGCCATCTAC”: the binding signal is 0.798 RPM ratio (pull-down/input).
For “GATGATTGTTCTCCCAGCTGATGAATTTCCAAGATCGAGTAAACAAATTTTCCTAATCTTTCTGTTCAAGCGCCATCTAC”, the binding signal is 0.831 RPM ratio (pull-down/input).
With “GATGATTGTTCTCCCAGCTGATGAATTATTTTTATCGAGTAAACAAATTTTCCTAATCTTTCTGTTCAAGCGCCATCTAC”, the binding signal is 1.4 RPM ratio (pull-down/input).
In the case of “GATGATTGTTCTCCCAGCTGATGAATTAAATCTGTCGAGTAAACAAATTTTCCTAATCTTTCTGTTCAAGCGCCATCTAC”, the binding signal was 0.778 RPM ratio (pull-down/input).
As to “GATGATTGTTCTCCCAGCTGATGAATTCTCCTGATCGAGTAAACAAATTTTCCTAATCTTTCTGTTCAAGCGCCATCTAC”, the binding signal was 0.841 RPM ratio (pull-down/input).
“GATGATTGTTCTCCCAGCTGATGAATTTGAGCTGTCGAGTAAACAAATTTTCCTAATCTTTCTGTTCAAGCGCCATCTAC”: the binding signal was 0.889 RPM ratio (pull-down/input).
On to “GATGATTGTTCTCCCAGCTGATGAATTAGCTTGTTCGAGTAAACAAATTTTCCTAATCTTTCTGTTCAAGCGCCATCTAC”, for which the binding signal was 0.973 RPM ratio (pull-down/input).
As to “GATGATTGTTCTCCCAGCTGATGAATTAAGGAGGTCGAGTAAACAAATTTTCCTAATCTTTCTGTTCAAGCGCCATCTAC”, the binding signal was 0.762 RPM ratio (pull-down/input).
Take “GATGATTGTTCTCCCAGCTGATGAATTCTGTTTCTCGAGTAAACAAATTTTCCTAATCTTTCTGTTCAAGCGCCATCTAC”: the binding signal was 1.14 RPM ratio (pull-down/input).
As to “GATGATTGTTCTCCCAGCTGATGAATTCGCTTTCTCGAGTAAACAAATTTTCCTAATCTTTCTGTTCAAGCGCCATCTAC”, the binding signal was 0.862 RPM ratio (pull-down/input).
For “GATGATTGTTCTCCCAGCTGATGAATTGGGGGGCTCGAGTAAACAAATTTTCCTAATCTTTCTGTTCAAGCGCCATCTAC”, the binding signal was 0.778 RPM ratio (pull-down/input).
Regarding “GATGATTGTTCTCCCAGCTGATGAATTAATTTCATCGAGTAAACAAATTTTCCTAATCTTTCTGTTCAAGCGCCATCTAC”, the binding signal is 0.97 RPM ratio (pull-down/input).
For the sequence “GATGATTGTTCTCCCAGCTGATGAATTTAAGAAGTCGAGTAAACAAATTTTCCTAATCTTTCTGTTCAAGCGCCATCTAC”, the binding signal is 0.847 RPM ratio (pull-down/input).
Turning to “GATGATTGTTCTCCCAGCTGATGAATTAACAAAGTCGAGTAAACAAATTTTCCTAATCTTTCTGTTCAAGCGCCATCTAC”, the binding signal was 1.2 RPM ratio (pull-down/input).
For the sequence “GATGATTGTTCTCCCAGCTGATGAATTCCTCGGGTCGAGTAAACAAATTTTCCTAATCTTTCTGTTCAAGCGCCATCTAC”, the binding signal is 0.702 RPM ratio (pull-down/input).
Turning to “GATGATTGTTCTCCCAGCTGATGAATTCATGTGTTCGAGTAAACAAATTTTCCTAATCTTTCTGTTCAAGCGCCATCTAC”, the binding signal is 1.34 RPM ratio (pull-down/input).
As for “GATGATTGTTCTCCCAGCTGATGAATTAGACATGTCGAGTAAACAAATTTTCCTAATCTTTCTGTTCAAGCGCCATCTAC”, the binding signal was 0.909 RPM ratio (pull-down/input).
As to “GATGATTGTTCTCCCAGCTGATGAATTTCGCGGTTCGAGTAAACAAATTTTCCTAATCTTTCTGTTCAAGCGCCATCTAC”, the binding signal is 0.827 RPM ratio (pull-down/input).
Take “GATGATTGTTCTCCCAGCTGATGAATTCTGATCTTCGAGTAAACAAATTTTCCTAATCTTTCTGTTCAAGCGCCATCTAC”: the binding signal was 0.888 RPM ratio (pull-down/input).
On to “GATGATTGTTCTCCCAGCTGATGAATTGTTTAAATCGAGTAAACAAATTTTCCTAATCTTTCTGTTCAAGCGCCATCTAC”, for which the binding signal was 1.34 RPM ratio (pull-down/input).
The figure for “GATGATTGTTCTCCCAGCTGATGAATTGACACGTTCGAGTAAACAAATTTTCCTAATCTTTCTGTTCAAGCGCCATCTAC” is 1.14 RPM ratio (pull-down/input); for “GATGATTGTTCTCCCAGCTGATGAATTGTCGTCGTCGAGTAAACAAATTTTCCTAATCTTTCTGTTCAAGCGCCATCTAC” it is 1.05 RPM ratio (pull-down/input); for “GATGATTGTTCTCCCAGCTGATGAATTCGACGTCTCGAGTAAACAAATTTTCCTAATCTTTCTGTTCAAGCGCCATCTAC” it is 0.816 RPM ratio (pull-down/input).
Turning to “GATGATTGTTCTCCCAGCTGATGAATTATTAGACTCGAGTAAACAAATTTTCCTAATCTTTCTGTTCAAGCGCCATCTAC”, the binding signal is 1.12 RPM ratio (pull-down/input).
For “GATGATTGTTCTCCCAGCTGATGAATTGACGAGATCGAGTAAACAAATTTTCCTAATCTTTCTGTTCAAGCGCCATCTAC”, the binding signal is 0.964 RPM ratio (pull-down/input).
“GATGATTGTTCTCCCAGCTGATGAATTTCAGGCTTCGAGTAAACAAATTTTCCTAATCTTTCTGTTCAAGCGCCATCTAC”: the binding signal was 0.856 RPM ratio (pull-down/input).
On to “GATGATTGTTCTCCCAGCTGATGAATTCCACTCGTCGAGTAAACAAATTTTCCTAATCTTTCTGTTCAAGCGCCATCTAC”, for which the binding signal is 0.819 RPM ratio (pull-down/input).
